# In article PMC4336329 (PLoS ONE, 2015):
# Hit rate of the full screen: of about 310,000 compounds, about 2,200 (0.71%) showed an effect of 50% or more. Effects have a minus sign here. The list shows a part of the results.
# Molecular target: human ether-à-go-go-related gene (hERG) potassium channel (human, UniProt Q12809)
# Assay: primary screen, population patch clamp on CHO cells stably expressing hERG
# Chain of human ether-à-go-go-related gene (hERG) potassium channel (Q12809 whole entry, looked up): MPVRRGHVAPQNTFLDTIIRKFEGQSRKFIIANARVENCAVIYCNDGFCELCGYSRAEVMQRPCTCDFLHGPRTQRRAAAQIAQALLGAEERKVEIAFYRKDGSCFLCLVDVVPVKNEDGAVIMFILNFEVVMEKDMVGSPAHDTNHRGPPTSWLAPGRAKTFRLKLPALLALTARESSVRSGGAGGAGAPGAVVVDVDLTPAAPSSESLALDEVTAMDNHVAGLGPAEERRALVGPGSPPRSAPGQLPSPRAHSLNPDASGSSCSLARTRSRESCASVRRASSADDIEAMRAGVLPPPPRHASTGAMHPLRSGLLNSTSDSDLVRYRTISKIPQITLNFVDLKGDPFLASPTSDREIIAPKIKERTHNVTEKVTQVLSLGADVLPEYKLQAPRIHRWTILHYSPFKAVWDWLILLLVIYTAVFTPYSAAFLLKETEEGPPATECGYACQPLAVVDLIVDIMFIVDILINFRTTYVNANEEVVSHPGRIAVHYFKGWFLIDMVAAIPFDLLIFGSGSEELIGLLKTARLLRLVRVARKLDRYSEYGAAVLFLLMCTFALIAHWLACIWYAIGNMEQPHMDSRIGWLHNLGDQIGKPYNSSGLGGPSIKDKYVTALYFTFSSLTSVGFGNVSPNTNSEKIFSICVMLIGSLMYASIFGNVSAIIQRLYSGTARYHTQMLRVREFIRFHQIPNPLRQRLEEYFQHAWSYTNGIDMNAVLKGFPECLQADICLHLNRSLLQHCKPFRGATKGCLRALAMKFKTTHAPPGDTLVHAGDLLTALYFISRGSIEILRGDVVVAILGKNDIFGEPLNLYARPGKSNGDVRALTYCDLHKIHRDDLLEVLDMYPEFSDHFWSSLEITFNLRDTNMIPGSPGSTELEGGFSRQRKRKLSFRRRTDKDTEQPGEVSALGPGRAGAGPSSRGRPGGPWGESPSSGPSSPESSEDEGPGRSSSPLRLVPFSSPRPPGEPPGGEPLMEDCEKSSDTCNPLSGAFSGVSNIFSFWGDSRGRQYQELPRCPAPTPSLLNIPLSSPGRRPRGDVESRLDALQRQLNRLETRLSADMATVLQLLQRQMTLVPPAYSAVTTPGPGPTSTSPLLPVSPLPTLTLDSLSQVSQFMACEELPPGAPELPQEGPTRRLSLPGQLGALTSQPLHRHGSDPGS
row,SMILES,"hERG current change (%, negative = inhibition) at 1uM"
1,O=c1[nH]c(=S)n(Cc2ccc(F)cc2)c(O)c1C=NCC1CCCO1 (stereo not shown),-46.4%
2,O=C(NCC1CCCO1)C(=O)NCC(c1ccco1)N1CCN(c2ccccc2)CC1 (stereo not shown),4.23%
3,CCCC1(C(=O)OCC)NC(c2ccc(N(C)C)cc2)C2C(=O)N(c3ccc(F)cc3)C(=O)C21 (stereo not shown),16.7%
4,CCN(C(=O)CSc1ncnc2sccc12)c1c(N)n(Cc2ccccc2)c(=O)[nH]c1=O,6.3%
5,CCC(C)/C(C)=N/NC(=O)c1ccc(COc2ccc(Cl)c(C)c2)cc1 (stereo not shown),1.67%
6,COC(=NC1CCCC1)C(O)c1c[nH]c2ccccc12 (stereo not shown),6.77%
7,CCN(C1=NS(=O)(=O)c2ccccc21)N(CC)S(=O)(=O)c1ccc(C)cc1,14.8%
8,N#Cc1ccsc1NC(=O)CN1CCCCCC1,-4.08%
9,CCCCCCSc1ccc([C@H]2N[C@@](Cc3ccccc3)(C(=O)OC)[C@H]3C(=O)N(C)C(=O)[C@@H]23)cc1OC.O=C(O)C(F)(F)F,10.6%
10,CCCCN1C(=O)C2(OCCCO2)c2cccc(C)c21,11.7%
11,CC(C)(C)c1ccc(OCCCC(=O)NC2=NCCS2)cc1,11.4%
12,CN(CC(=O)Nc1ccc(F)cc1)C(=O)Cn1c(=O)oc2ccccc21,3.7%
13,COCC(=O)Nc1cc(C(=O)NCCc2ccccc2)ccc1Cl,7.95%
14,COc1ccc(C(CC(=O)Nc2ccc(Cl)cc2F)NC(=O)C(F)(F)F)cc1 (stereo not shown),13.5%
15,COc1ccc(N(CC(=O)O)S(=O)(=O)c2c(C)n[nH]c2C)cc1,3.23%
16,COC(=O)[C@@H]1CCCN1Cc1nc(Cc2ccc(OC)c(OC)c2)no1,8.73%
17,CCN(CC)CCNC(=O)C1(O)c2cc(Br)ccc2NC(=O)N1c1cccc(OC)c1 (stereo not shown),16.3%
18,Oc1cccc2ccc(/C=C/c3cccs3)nc12,-13.9%
19,O=C(N/N=C/c1cc2c(cc1Br)OCO2)c1cc2ccccc2o1,14.9%
20,Cl.NC(=NC1CCCCC1)c1ccc(Cl)cc1,2.36%
21,O=C(Cc1nc2ccccc2[nH]1)N/N=C/c1ccccc1,12.4%
22,CCOC(=O)Cn1nnc(-c2ccc(S(C)(=O)=O)cc2)n1,21.1%
23,COc1ccc(C(=O)Nc2cccc([N+](=O)[O-])c2)cc1Br,1.04%

row,SMILES,"hERG current change (%, negative = inhibition) at 1uM"
1,Clc1ccc(-c2noc(COc3ccccc3)n2)cc1,10.4%
2,COc1ccc(OCC(=O)NNC(=O)c2cc3ccccc3o2)cc1,5.62%
3,COc1cc2c(C(=O)N3CCN(C)CC3)c(C)n(C)c2cc1Br,-4.09%
4,Cc1ccc(/C=C/C(=O)OC(C)C(=O)NC2CCCCC2C)o1 (stereo not shown),-1.79%
5,CCOc1ccccc1N1CCN(S(=O)(=O)c2cccs2)CC1,10.9%
6,CN(C)C(=O)CN1CCN(Cc2nc(CC3CC3)no2)CC1,7.17%
7,Clc1ccc(-c2cn(-c3ccccc3)c3[n+]2CCS3)cc1.[Br-],-17.9%
8,N[C@@H](Cc1cc(Br)c(O)c(Br)c1)C(=O)O,8.45%
9,COc1ccccc1NS(=O)(=O)c1cccc(C(=O)N/N=C/c2cn(-c3ccccc3)nc2-c2ccccc2)c1,-15.7%
10,CC1(C)Cc2ccccc2C(N)=C1C#N,-3.82%
11,COc1cc(NC(=O)Cn2c(-c3cncs3)nc3ccccc32)cc(OC)c1OC,4.74%
12,Cc1cc(C)c(OCCOCCN2CCNCC2)c(C)c1.O=C(O)C(=O)O,13.4%
13,Cc1ccccc1S(=O)(=O)Nc1ncc(C(F)(F)F)cc1Cl,20.1%
14,NC(=O)Cn1cnc2nc3n(c2c1=O)CCC3,-2.24%
15,C=CCn1c(SCC(=O)NC2CCCC2)nc2sc(C)cc2c1=O,-3.24%
16,COC(=O)c1sccc1NC(=O)Nc1cccc(C(C)=O)c1,10.8%
17,CCC1CCC/C1=N\NC(=O)c1ccc(Cl)cc1 (stereo not shown),1.17%
18,CC/C(=N\Nc1cccc2ccccc12)c1c(O)[nH]c(=O)[nH]c1=O,10.9%
19,FC(F)(F)c1cccc(Cc2noc(CN3CCC(N4CCCCC4)CC3)n2)c1,-26.3%
20,O=C(COc1ccc(S(=O)(=O)NC2CCCC2)cc1)NCC1CCCO1 (stereo not shown),11.5%
21,COc1ccccc1CN1CCNC(=O)C1CC(=O)NCCC1=CCCCC1 (stereo not shown),11.8%
22,NC(=O)NC(=O)COC(=O)CCCCCNS(=O)(=O)c1ccc2c(c1)OCCO2,5.49%
23,COc1ccccc1N1CCN(C2CCCN(Cc3ccc(Cl)cc3)C2)CC1 (stereo not shown),-13.4%
